Results reported in PubChem BioAssay AID662 (National Center for Advancing Translational Sciences (NCATS), 2007).
In all, about 71,000 compounds went through this assay and about 1,800 (2.5%) were called active. The shares of active, inactive and inconclusive entries below differ from those in the screen. Calls follow the shape of the dose curve; as a rule, active = well fitted activation curve with a large enough effect in the signal ratio, with a control signal flat (not every such curve was filed as active); inconclusive = small, poorly fitted or top-dose-only effect, or effect the other way, or a change in a side signal; inactive = flat fitted curve, though single readings scatter; the % refers to the signal ratio. A potency beside an inconclusive call is a rough fit, not a confirmed value.
Potency is read from the fitted curve at half-maximal effect; tags tell the direction and shape of the fitted curve.

Experiment: Cell signaling CRE-BLA (Fsk stim); as to activity change, negative = inhibition: % of control where 0% means no effect
Conditions: CHO CRE-bla reporter (cAMP response element driving beta-lactamase), forskolin EC10, beta-lactamase ratio; activity change, negative = inhibition: at 38.2 µM (top of the series) unless noted
Procedure, shortened: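 Titrated compounds plus EC10 NKH 477 on CHO CRE-bla cells, 3 h, 37 °C. CCF4, 2 h RT. Ratio 460/530 nm → AC50.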
With `COc1ccc(-c2oc3ncnc(NCCN4CCOCC4)c3c2-c2ccc(OC)cc2)cc1` the “activity change, negative = inhibition” value was inactive: 19.2%.
For `COc1ccc(N2CCN(CCNC(=O)C3CCN(S(=O)(=O)c4cccs4)CC3)CC2)cc1`, the activity change, negative = inhibition was inconclusive: 0.643%.
In the case of `CCCc1ccccc1OCCNC(C)=O`, the “activity change, negative = inhibition” value is reported as inactive: -13.5%.
With `O=C(NCCc1c[nH]c2ccccc12)C(F)(F)C(F)F` the Potency was inconclusive: 7.94 µM [falling, partial curve].
For `CC(O)c1cccc(NC(=O)CCC(=O)O)c1` (stereo not given), the activity change, negative = inhibition was inconclusive: -26.2% [at 7.6 µM].
With `COc1cccc2c(C)c(C(=O)O)[nH]c12` the activity change, negative = inhibition was inconclusive: -22.4%.
For `Cc1cc(C)c2nc(-c3ccccn3)cc(C(=O)NCc3ccco3)c2c1`, the activity change, negative = inhibition was inconclusive: -11.7%.
In the case of `COc1cc2c(C)nc3onc(-c4ccccc4)c3c2cc1OC`, the Potency is reported as inconclusive: 2.51 µM [rising, full curve].
For `COn1c(SCC(=O)N(C)C)nc2ccccc2c1=O`, the Potency was inconclusive: 25.1 µM [rising, single point].
With `CCNc1nc(SC(C)C(=O)Nc2ccccc2)nc(N2CCOCC2)n1` (stereo not given) the Potency was inconclusive: 10 µM [rising, partial curve].
In the case of `CCOC(=O)CNC(=O)CSc1nnc(SCC(=O)NCC(=O)OCC)s1`, the activity change, negative = inhibition is reported as inconclusive: -4.5% [at 7.6 µM].
With `CCn1c(SCC(=O)Nc2ccc(NC(=O)c3ccco3)c(OC)c2)nc2ccccc2c1=O` the Potency was inconclusive: 3.16 µM [rising, partial curve].
With `CCCn1c(C)nc2c(N3CCOCC3)nc(C)nc21` the Potency was active: 10 µM.
In the case of `Cc1ccc(OCc2nc(C#N)c(NCc3ccc4c(c3)OCO4)o2)cc1`, the “activity change, negative = inhibition” value is reported as inactive: 18.9%.
For `COc1cc(-c2nc(S(=O)(=O)c3ccc(Cl)cc3)c(N3CCOCC3)o2)cc(OC)c1OC`, the activity change, negative = inhibition was inconclusive: 27.6%.
With `CSc1nc2ccc(Nc3nc(N4CCOCC4)nc(N4CCOCC4)n3)cc2s1` the Potency was active: 3.16 µM.
For `N#Cc1nc(-c2ccc(OCc3ccccc3)cc2)oc1NCCN1CCOCC1`, the Potency was inconclusive: 12.6 µM [rising, partial curve].
For `COc1ccc(CNc2oc(-c3cccc4ccccc34)nc2C#N)cc1`, the Potency was active: 10 µM.
For `CCn1c(COc2ccc(Cl)cc2)nnc1SCc1ccc(C#N)cc1`, the activity change, negative = inhibition was inconclusive: -15.7%.
With `CCC(=O)Nc1nc2ccc3nc(C)sc3c2s1` the Potency was inconclusive: 7.94 µM [rising, partial curve].
For `COCCn1c(-c2ccc(OC)cc2)cnc1SCC(=O)Nc1cc(C)on1`, the “activity change, negative = inhibition” value was inactive: 7.38%.
For `COC(=O)c1sccc1NC(=O)Cn1cnc2c1c(=O)n(C)c(=O)n2C`, the “activity change, negative = inhibition” value was inactive: 6.42%.
In the case of `N=c1n(Cc2ccccc2)c2ccccc2n1CC(O)c1ccco1` (stereo not given), the activity change, negative = inhibition is reported as inconclusive: -2.23%.
In the case of `Cc1ccc(O)c(-c2cc(-c3ccccc3C)[nH]n2)c1`, the Potency is reported as inconclusive: 20 µM [rising, single point].
In the case of `Cc1cc(C)nc(Nc2ccccc2Br)n1`, the activity change, negative = inhibition is reported as inconclusive: -4.88%.
With `O=C(O)c1cc(Cl)cc(Cc2cc(Cl)cc(C(=O)O)c2O)c1O` the activity change, negative = inhibition was inactive: -4.45% [at 7.6 µM].
In the case of `O=C(Nc1ccccc1N1CCCCC1)c1ccc2nccnc2c1`, the Potency is reported as active: 10 µM.
With `COc1cc(NC(=O)Cn2nnc(-c3ccncc3)n2)cc(OC)c1` the Potency was inconclusive: 15.8 µM [rising, partial curve].
In the case of `C=CCn1c(SCC(=O)NC2CCCC2)nc2scc(-c3ccco3)c2c1=O`, the activity change, negative = inhibition is reported as inconclusive: -29.2%.
In the case of `NC(=S)NNC(N)=S`, the “activity change, negative = inhibition” value is reported as inactive: 2.25%.
For `Cc1ncoc1C(=O)NCc1ccccc1Cl`, the activity change, negative = inhibition was inconclusive: 21.6%.
With `O=C1CC(c2cccs2)CC2=C1C(c1ccccc1)n1ncnc1N2` (stereo not given) the “activity change, negative = inhibition” value was inactive: 3.39%.
For `CCCCCCCC/C=C\CCCCCCCC(=O)O`, the “activity change, negative = inhibition” value was inactive: 4.81%.
In the case of `CCOc1ccccc1-n1c(SCC(N)=O)nc2ccccc2c1=O`, the Potency is reported as inconclusive: 0.1 µM [falling, single point].
In the case of `COC(=O)c1ccc(NC(=O)CSc2nnc(CNc3ccc(F)cc3)n2C)cc1`, the Potency is reported as inconclusive: 25.1 µM [falling, single point].
In the case of `Cn1c(=O)c2c(nc(NCCCO)n2C/C=C/c2ccccc2)n(C)c1=O`, the Potency is reported as inconclusive: 15.8 µM [rising, single point].
In the case of `CCOCCCn1c(=S)[nH]c2cc(C(=O)NCCN(CC)CC)ccc2c1=O`, the Potency is reported as inconclusive: 25.1 µM [rising, single point].
With `CCc1nc2oc(C(=O)c3ccccc3)c(N)c2c2c1COC(C)(C)C2` the Potency was inconclusive: 0.398 µM [rising, partial curve].
For `Cc1cccn2c(=O)c3cc(C(=O)N(C)C)n(C)c3nc12`, the Potency was inconclusive: 12.6 µM [rising, partial curve].
In the case of `Cc1nc(S(=O)(=O)N(C)c2ccccc2)c(C#N)c(C)c1Cl`, the Potency is reported as inconclusive: 10 µM [falling, partial curve].
With `COc1cccc(C(=O)Nc2ccc3nc(N4CCN(c5ncccn5)CC4)cc(C)c3c2)c1OC` the Potency was inconclusive: 0.316 µM [rising, full curve].
With `CCOc1cc(N2CCOCC2)c(OCC)cc1NS(=O)(=O)c1ccc(Cl)s1` the Potency was inconclusive: 3.16 µM [rising, single point].
For `COc1ccc(-c2nc(N)c3ncn([C@H]4O[C@@H](CO)[C@@H](O)[C@@H]4O)c3n2)cc1`, the activity change, negative = inhibition was inactive: 13.3% [at 7.6 µM].
In the case of `COc1ccc(NC(=O)c2ccco2)cc1NC(=O)c1ccc(Br)o1`, the Potency is reported as inconclusive: 12.6 µM [rising, partial curve].
In the case of `FC(F)(F)c1cccc(N2Cc3ccccc3C2)c1`, the activity change, negative = inhibition is reported as inconclusive: 19.4%.
In the case of `Cc1ccccc1C`, the activity change, negative = inhibition is reported as “inactive”.
In the case of `C=CCN1CC(c2nc3ccccc3n2CCOc2ccccc2)CC1=O` (stereo not given), the activity change, negative = inhibition is reported as inconclusive: 26.8%.
For `CCCNc1nc2c(c(=O)n(C)c(=O)n2C)n1CCC(C)C`, the Potency was inconclusive: 10 µM [rising, partial curve].
For `COc1cc(Cl)c(S(=O)(=O)n2cnc(C)c2)cc1Cl`, the Potency was inconclusive: 1.26 µM [rising, partial curve].
For `CCCCCCN(C(=O)CCCCCN1C(=O)NC(c2ccc3ccccc3c2)C(C(=O)OCc2ccccc2)=C1C)C(C(=O)NCCCC)c1ccc(OCC(=O)OC)c(C(=O)OC)c1` (stereo not given), the “activity change, negative = inhibition” value was inactive: 1.18%.
For `Cc1ccc(NC(=O)CSc2nc3nc(C)cc(C)c3c(=O)[nH]2)cc1`, the Potency was active: 3.16 µM.
In the case of `COc1ccc(-c2nnc(-c3ccc(Br)o3)o2)cc1OC`, the Potency is reported as inconclusive: 5.01 µM [falling, single point].
For `CCOC(=O)NC(=O)CSc1nc2ccc(OCC)cc2[nH]1`, the activity change, negative = inhibition was inconclusive: -4.18%.
In the case of `CCOc1cc(C2c3c(oc4cc(C)c(Cl)cc4c3=O)C(=O)N2Cc2ccco2)ccc1O` (stereo not given), the Potency is reported as active: 12.6 µM.
In the case of `COc1ccc(-c2cc(-c3c(O)c(OC)c4occc4c3OC)[nH]n2)cc1OC`, the Potency is reported as active: 10 µM.
For `CC(=O)c1ccc(N2CCN(C(=O)c3cc4c(=O)n(C)c5ccccc5c4n3C)CC2)cc1`, the Potency was inconclusive: 3.16 µM [rising, full curve, poor fit].
With `CCCc1nc(S(=O)(=O)Cc2ccc(Cl)cc2Cl)n[nH]1` the activity change, negative = inhibition was inconclusive: -25.5%.
For `Cc1nnc(NC(=O)C2CCN(c3cnccn3)CC2)s1`, the “activity change, negative = inhibition” value was inactive: -12.8%.
For `C#C[C@]1(O)CC[C@@H]2[C@H]3CCc4cc(OC)ccc4[C@@H]3CC[C@@]21C`, the activity change, negative = inhibition was inconclusive: 19.7% [at 17.1 µM].
With `Cc1nc2cnc(Oc3ccccc3)nc2n(-c2ccccc2)c1=O` the activity change, negative = inhibition was inconclusive: 11.8%.
In the case of `CCCCNCC`, the “activity change, negative = inhibition” value is reported as inactive: -1.59%.
In the case of `COc1ccc(-c2nnc3n2N=C(c2ccccc2)CS3)cc1OC`, the “activity change, negative = inhibition” value is reported as inactive: -6.94%.
In the case of `COc1ccc(C2C3=C(CC(C)(C)CC3=O)Oc3ncn(CCCn4ccnc4)c(=N)c32)cc1` (stereo not given), the Potency is reported as inconclusive: 12.6 µM [rising, partial curve].
For `CS(=O)(=O)Nc1cccc(-c2cncnc2NCc2ccccc2)c1`, the “activity change, negative = inhibition” value was inactive: 0%.
In the case of `COc1cc(-c2nnc(SCC(=O)c3ccccc3)o2)cc(OC)c1OC`, the Potency is reported as inconclusive: 10 µM [rising, partial curve].
With `O=C1CCCN1CN(C(=O)c1ccccc1)c1ccc(F)cc1` the activity change, negative = inhibition was inconclusive: 8.5%.
For `O=C(CSc1nnc(-c2ccco2)o1)NC1CCCCC1`, the activity change, negative = inhibition was inconclusive: 11.9% [at 7.6 µM].
For `CN(C)c1ncc2nc(-c3cccs3)c(=O)n(C3CC3)c2n1`, the Potency was inconclusive: 2.51 µM [rising, full curve].
For `Cn1c(=O)c2c(nc(Br)n2C)n(C)c1=O`, the activity change, negative = inhibition was inconclusive: 39.7%.
In the case of `C=CCn1c(=O)n(CCOC)c(=O)c2sc3ccccc3c21`, the Potency is reported as inconclusive: 6.31 µM [rising, partial curve].
For `CCOC(=O)C(C(C)=O)c1c(Br)c(O)c(O)c2c(C(=O)c3ccc(C)cc3)coc12` (stereo not given), the activity change, negative = inhibition was inconclusive: -4.72%.
With `COC(=O)CNC(=O)c1ccc2c(c1)S(=O)(=O)c1ccccc1C2=O` the Potency was inconclusive: 3.98 µM [rising, single point].
With `CCCCNC(=O)CC1N=C2c3ccccc3N=C(SCC(=O)Nc3ccccc3C)N2C1=O` (stereo not given) the “activity change, negative = inhibition” value was inactive: -23.6%.
In the case of `CCOc1ccc(N2CC(C(=O)Oc3ccccc3)CC2=O)cc1` (stereo not given), the “activity change, negative = inhibition” value is reported as inactive: -3.35%.
For `ON1C(c2ccccc2C(F)(F)F)N(O)[C@H]2CCCC[C@H]21` (stereo not given in full), the activity change, negative = inhibition was inconclusive: 12.8%.
For `COc1ccc2c(c1)C(=O)N(c1ccccc1OC)C(=O)C2(C)C`, the Potency was active: 3.16 µM.
With `COc1ccc(CCn2nnnc2C(c2ccc(C)cc2)N2CCN(C)CC2)cc1OC` (stereo not given) the “activity change, negative = inhibition” value was inactive: 2.22%.
In the case of `Cn1cnnc1SCc1ccc(-c2ccc(Br)cc2)o1`, the Potency is reported as inconclusive: 10 µM [falling, partial curve].
In the case of `Cn1c(SCC(=O)Nc2cccc(O)c2)nnc1-c1ccc(S(=O)(=O)N2CCOCC2)cc1`, the Potency is reported as inconclusive: 3.16 µM [falling, single point].
In the case of `CCn1cc(C(=O)N2CCN(C3CCCCC3)CC2)c2cc(OC)c(OC)cc2c1=O`, the Potency is reported as active: 10 µM.
